Test results as given in patent US20240350588A1 (SUNSHINE LAKE PHARMA, published 2024).

T1: human GFRAL (UniProtKB-Q6UXVO) (human, UniProt Q6UXV0 19-394)
T1 sequence (looked up): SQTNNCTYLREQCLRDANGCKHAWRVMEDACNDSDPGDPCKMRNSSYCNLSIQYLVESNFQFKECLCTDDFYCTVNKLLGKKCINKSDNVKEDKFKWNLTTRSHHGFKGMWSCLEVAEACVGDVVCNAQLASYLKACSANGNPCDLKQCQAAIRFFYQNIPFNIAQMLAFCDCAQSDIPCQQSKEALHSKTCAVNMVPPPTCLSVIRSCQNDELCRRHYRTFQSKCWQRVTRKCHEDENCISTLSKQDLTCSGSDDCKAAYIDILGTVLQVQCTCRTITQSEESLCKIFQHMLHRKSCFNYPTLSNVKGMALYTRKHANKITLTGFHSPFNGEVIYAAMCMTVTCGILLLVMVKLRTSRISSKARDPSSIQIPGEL

B1: Fc-GDF15 fusion protein M14 (Fc fusion)
chain: [sequence of human IgG4 Fc not given]GGGGSGGGGSAPAPAPAPAPAPAPAPAPAPGGGGSGGGGSDHCPLGPGRCCRLHTVRASLEDLGWADWVLSPREVQVTMCIGACPSQFRAANMHAQIKTSLHRLKPDTVPAPCCVPASYNPMVLIQKTDTGVSLQTYDDLLAKDCHCI
B2: Fc-GDF15 fusion protein M1 (Fc fusion)
chain: [sequence of human IgG4 Fc with F234A L235A (EU numbers) not given]GGGGSGGGGSAPAPAPAPAPAPAPAPAPAPGGGGSGGGGSDHCPLGPGRCCRLHTVRASLEDLGWADWVLSPREVQVTMCIGACPSQFRAANMHAQIKTSLHRLKPDTVPAPCCVPASYNPMVLIQKTDTGVSLQTYDDLLAKDCHCI
B3: Fc-GDF15 fusion protein M17 (Fc fusion)
chain: [sequence of human IgG4 Fc with K439E (EU numbers) not given]GGGGAPAPAPAPAPAPAPAPAPAPGGGGGDHCPLGPGRCCRLHTVRASLEDLGWADWVLSPREVQVTMCIGACPSQFRAANMHAQIKTSLHRLKPDTVPAPCCVPASYNPMVLIQKTDTGVSLQTYDDLLAKDCHCI
B4: Fc-GDF15 fusion protein M18 (Fc fusion)
chain: [sequence of human IgG4 Fc with K439E (EU numbers) not given]GGGGSGGGGSEPEPEPEPEPEPEPEPEPEPGGGGSGGGGSDHCPLGPGRCCRLHTVRASLEDLGWADWVLSPREVQVTMCIGACPSQFRAANMHAQIKTSLHRLKPDTVPAPCCVPASYNPMVLIQKTDTGVSLQTYDDLLAKDCHCI
B5: Fc-GDF15 fusion protein M19 (Fc fusion)
chain: [sequence of human IgG4 Fc with K439E (EU numbers) not given]GGGGSGGGGSGGGGSGGGGSGGGGSGGGGSGGGGSGGGGSDHCPLGPGRCCRLHTVRASLEDLGWADWVLSPREVQVTMCIGACPSQFRAANMHAQIKTSLHRLKPDTVPAPCCVPASYNPMVLIQKTDTGVSLQTYDDLLAKDCHCI
B6: Fc-GDF15 fusion protein M12 (Fc fusion)
chain: [sequence of human IgG1 Fc with L234A L235A K439E (EU numbers) not given]GGGGSGGGGSAPAPAPAPAPAPAPAPAPAPGGGGSGGGGSDHCPLGPGRCCRLHTVRASLEDLGWADWVLSPREVQVTMCIGACPSQFRAANMHAQIKTSLHRLKPDTVPAPCCVPASYNPMVLIQKTDTGVSLQTYDDLLAKDCHCI

target: T1, human GFRAL (UniProtKB-Q6UXVO); test: cell-based or functional assay

Relative activity ratio (native GDF15 EC50: Fc-GDF15 construct EC50), ERK1/2 phosphorylation HTRF in HEK293T cells expressing human GFRAL and RET | Binder
1.18 ratio | B1
2.66 ratio | B2
1.31 ratio | B3
1.69 ratio | B4
1.19 ratio | B5
0.97 ratio | B6
